Variants at the floor of the assay are shown more often than the library holds them.
B1: TPR 5TU (parent)
chain: GGAUCUUCUCGAUCUAACAAAAAAGACAAAUCUGCCACAAAGCUUGAGAGCAUCUUCGGAUGCAGAGGCGGCAGCCUUCGGUGGCGCGAUAGCGCCAACGUUCUCAACUAUGACACGCAAAACGCGUGCUCCGUUGAAUGGAGUUUAUCAUG

Variants of: B1
Experiment: polymerase ribozyme fitness, log enrichment relative to wild type (log ratio); higher = more active; in vitro selection for triplet polymerase activity
Summary of the method: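 To select mutant libraries of each subunit of a heterodimeric triplet polymerase ribozyme, built by PCR and transcribed, each was annealed with a biotinylated primer, partner subunit and triplets, then incubated frozen at −7 °C. Extended constructs were gel-excised, captured on streptavidin beads and amplified by RT-PCR, in one round carried out in triplicate. Illumina sequencing of input and output libraries kept genotypes with ≥10 input reads and ≥1 read per output. Fitness is the base-2 logarithm of genotype enrichment relative to wild-type enrichment, from inverse-variance-weighted replicate averages.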

Polymerase ribozyme fitness (log ratio), -3.91:
C10G A52G C54U G58C C79A C95U

Polymerase ribozyme fitness (log ratio), -3.47:
C10A C87U

Polymerase ribozyme fitness (log ratio), -4.05:
C10G A41U

Polymerase ribozyme fitness (log ratio), ≤ -4.2:
C10A A20G A23C A24U A26G C85G A91G G100U A115G
C10A A20G A40C C54U G83A G92A C131G G141U A150U
C10A A20G A41C C95G G141A
C10A A20G A41G G46A A47C C57U C85G G133U
C10A A21G A29G C51U A52G U78C C95A A122U U146G
C10A A21G U53A C54A C57U C69A C95U A106U G143A
C10A A21U G84A A97U A113G
C10A A22C A26G A49C
C10A A22G C87A A91G G94U G117U
C10A A23C
C10A A23C C57U G74A G92C A98U G117C G124A
C10A A23C G25C G92A A113U
C10A A23C G50A C75G C95U C96A C123G
C10A A23U G83U
C10A A26U U33A U53G C54A U55A A110C A122U G133U U145A
C10A A28C U61A C76U U77A A147C
C10A A28U G34U A52C C87A C93U G112C
C10A A29C G42U G68A A89C C95A G141U
C10A A29C U44G G58A A60G A97U G141C
C10A A30C U31A C38U G88U A107G
C10A A37G A39G G74U A89U G94A U146G
C10A A37U C76U G92U C99G G100U A137G
C10A A37U G48A A64G G128U A142C
C10A A39G A40G U44G A91U A107G
C10A A40C G50A C95U U148C
C10A A40C G68A G84A G94A G117A C132G U144C
C10A A40U C93G C103U
C10A A40U G42A C75U C87U
C10A A41C C76A A91U C96G A121C U127G
C10A A41G C103A A110G
C10A A41U C51G C87A
C10A A47G A60G U78A G94C
C10A A47G A64G G81U G84U
C10A A49G C76U G83U C129U G141A
C10A A52C G65U C69U C99U C103A
C10A A52G G94C A150C
C10A A66C G88U A137U U139C
C10A A66U G81A G94U U134A
C10A A91G C93U U144G
C10A C14G A19U A30C C93U
C10A C14U A26U A30G G84A U139G A142U
C10A C14U A30U C51A C57G G84A
C10A C27A G86U U101G C103U C125U C131U G141U
C10A C27G A30C U31A U77G G84U A147G
C10A C27G G46A C75A C96A
C10A C27G U77C G83A
C10A C27U A41C C57A G80C C85A A121G C123A
C10A C27U A119U A138G
C10A C27U C36G A73C G81A G92U A106G C131A
C10A C27U U45C G48A U55A A60G U102G G143C U146G
C10A C32A C54U C116A G143A
C10A C36A G86A
C10A C38U U45G U61G G70A U78G C85G
C10A C54A C57U G94A
C10A C63U G67A U77C G92A U127C U135G
C10A C69G A120U A122C C131A
C10A C69U
C10A C72A C93U
C10A C75G C85U G140U
C10A C85G C114G C129U U135G
C10A C85G C125A
C10A C85U A91U C103U
C10A C85U G133C U134A U146G
C10A C87A C96U A142C
C10A C87U C116G C118U U127C A142G
C10A C93U G140C
C10A C96A A107G
C10A C96U G143A
C10A G42C A66C G94U G100C G133A A138C
C10A G42U U53A C76G U90G
C10A G48C C51U U53C G92C C105U C114A A120G
C10A G50A A60G G86A G133C
C10A G62A
C10A G62C G68A U82G C93A A97G C118A G143U
C10A G84U
C10A G88A
C10A G88U C95A U134A
C10A G92A G124U U146A
C10A G100A C108G C129G
C10A U13C A30C G83A G88A A98U C125A A147G
C10A U13G A22U A113C U146G
C10A U13G G25C G34U U61A C63U G68C U77C C79A G86A
C10A U15A A23U G42A G133U U148G
C10A U15G G58A G86U A98G A138U
C10A U31C G46A C69G G80A U82A G86A C99U G100U G141A
C10A U31C U61A
C10A U33A U78G U90A G140A
C10A U44A C85G A107U
C10A U55A A60G C69A C96U
C10A U55A G86U A91U
C10A U56A C76U C87A A138G
C10A U56C G80C G81C C93G G124U C132G
C10G A12G A120U U135C
C10G A12U A22G C35G G94A C95U C99A U111C
C10G A16C A28C C125G
C10G A16C U56G G100A
C10G A16U A21U C54U A60U G141C
C10G A16U C54U U56A G59A G88C C105G A110G A119U C123A U145G U148C
C10G A16U C93A G141C A150G
C10G A16U G48A C69G U109C A110U
C10G A17C C36U G48A A64U G88C C118G
C10G A17C C51U G86A
C10G A17G C57U U61A G80U U127G
C10G A17U A37C G59C C85A
C10G A19C A41G G46U C95G C96U
C10G A19G G48C C87A A98G C99U C103A C114U G133U
C10G A19U C85G A91G U148A
C10G A19U U33G G86A
C10G A20C A40U A64G G70U C87U
C10G A20C U33G C93A G94U C96G C114U U145A
C10G A20G A21U C35U G92A C114U U146A
C10G A21C U53A G88U A137C
C10G A21U A28U A29U C36G G143A
C10G A21U A52G C75G C87U C93A U130G
C10G A21U A91G
C10G A21U U53A C93G G140C
C10G A22U G48U G50C G88U
C10G A23C G34A A37G U55A U82G G83U G94A C118G U144C C149G
C10G A23C U53G C54A A115G C125G
C10G A23U G58C C96G G141U U146G
C10G A23U U31G C57A C87G C125U
C10G A24U A52C G92U C103G A106C
C10G A24U G83U C103A A121U G141A
C10G A24U U45G C57U C75G C103G G126U
C10G A24U U45G G50C C51G A106C G124A U127G
C10G A26C C76A G83A
C10G A28U C54U C85G C116U
C10G A29C C54A U55G G88A G92U G124U
C10G A29U C43U A52C A66C C96U C99G
C10G A29U C95U C108A G117A G143C
C10G A30G C38A G94U C125G U144C
C10G A30U C43G G58A G68A G80A A113C
C10G A37C G50A C95U C99A G143C
C10G A37U G42A G88C
C10G A37U G58A G59C A150G
C10G A37U U55A G94A C95G G140C
C10G A39U G58U
C10G A40C A73G G83C G84A U144A U146C
C10G A40G C54U A91U C95A C131A U139A A150G
C10G A40G G48A G70C A120U U134G
C10G A41C G71U G80C
C10G A41G A115G
C10G A49C G50C G67U C93G C108U G112C C125U
C10G A49U C51U U61A G67A C95U
C10G A49U G62C A66C G67U C96A C99G U134C U145C A147C U151G
C10G A52C G70U C85G G117U
C10G A52U
C10G A60G A64C A73G C93A
C10G A60U U77A G84A A115U C149U
C10G A73U C76A C85G
C10G A73U G128U
C10G A97U U130G
C10G C14G A37G C54U C103A
C10G C14U A17C G46A C57U A89C A98G U139G G141U
C10G C14U G50C C54A C76G C105G
C10G C18G A20U A23G G59A G65C U151G
C10G C18U C85G G133U A138G
C10G C27A A39U C75A G92C A97U A121U
C10G C32U C38U A49G U109G A120U G128C
C10G C32U C75U C85U A121C
C10G C32U G81A C87G G92A A110G A115C U135C
C10G C35A G59U U61A G74U A107G C108U A119G
C10G C35U A37U A41U C43U U55A G92U C132U

Polymerase ribozyme fitness (log ratio), -4.19:
C10A C32G C38U U56G A60G C95A C131U G140U

From the RNAGym collection of RNA variant scans (doi:10.1073/pnas.2313332121)
